The other results are listed elsewhere or left out.
Tested on: PfAP2-HC AP2 domain (GST-tagged)
Test: gcPBM binding intensity (ln(normalized median fluorescence intensity)); higher = stronger DNA binding
In short: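 DNA-binding domains from P. falciparum, fused to GST and produced in E. coli, were put on an Agilent 4 × 180k double-stranded probe array for 1 h in 1× PBS holding 1% milk, 0.2 mg/ml BSA, 0.5% salmon testes DNA and 0.03% Triton X-100. Probes were primer-extended, 36 bp long and drawn from intergenic genomic regions, with negative controls included. After Alexa488 anti-GST antibody detection and a 488 nm scan, binding intensity was set as the highest Masliner-normalised natural-log median intensity across replicate spots of either probe orientation.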

Sequence	gcPBM binding intensity (ln)
AAAAAACGCACTCGTACACACATATTTTCTTTCTAA [CACACA_site3089]	9.77
TTAATTACACAAAAAAGTACTTGATATTGTTTATTA [XGTACX_site3449]	9.56
ATATAATCAACTGCAAAGGTTTAAAAGGAAAAAATA [CACACA_negctrl_site989]	9.68
AATATTTACCAGAAAATAAAAATATGTATATATATA [CACACA_negctrl_site351]	9.59
CGATATTCTAAGGATAGTACATAATAAAATAGAGTA [XGTACX_site4224]	9.63
ATTTATATTTTTTAATGTACATTTATATGTATACAA [XGTACX_site4555]	9.77
TAAAATAGAAATATATGTACATATATATATGTATAT [XGTACX_site4134]	9.76
ATGTATATATTTACGTGTACATATTCATGTGATATC [XGTACX_site5871]	9.75
TGCTATTTTTTCCTTTTTTTGTATCACAATCATATA [CACACA_negctrl_site1576]	9.74
TTATACTTTGGGTGGTGTACTATATTATGCTTATAA [XGTACX_site1106]	10.1
ATTAAACATAAATATGCACACATATACATATATTCA [CACACA_site8850]	9.79
AGTAATAAAAGTAGAAGTACAATACTTCAAAGATAT [XGTACX_site8562]	9.89
GTTCTAAAAGTTAATGCATGTTATAAGTTTCCCTCT [TGCATGCA_site94]	9.57
TATTTCAAAATATGGGTGCAGTTCTTCATGATATAT [GTGCAC_site9658]	9.65
GTATGCATTATATACACACATACATTTATATATTCT [CACACA_site115]	10.1
ATTATATACATTTTAGTGCATTACATAATAATATAA [GTGCAC_site9836]	9.54
ACTATTTAATATAGGGTGCAACTTTTTCAAGTAAAT [GTGCAC_site9853]	9.58
TTTCTTTTTTGATGCGTGCACATTTGTTTATTTTTC [GTGCAC_site9792]	9.89
TTTATTTATTAATACACACACACACCCAGACAAAAT [CACACA_site4292]	11.3
TATCTTTTTACAATAGTGCATATGTTATCATTAATA [GTGCAC_site9489]	9.65
AGATATATAAATATTACACACTATATATCTATTTAT [CACACA_site6466]	9.75
ATTTGCCCATTTAATTAACACACAAATGTTTATATT [CACACA_site8145]	9.94
ACCCCCATATTCTTTTTACACACTTGAATAAAAAAT [CACACA_site8319]	9.78

Sequence	gcPBM binding intensity (ln)
ATTTTTCAATTATGTAGTACATTGATATTTTCATTT [XGTACX_site5369]	9.72
ATTCATTTTATTTTTTCACACACACCGATATATATA [CACACA_site9097]	10.2
TTTTTTTTTTTGTGGTGTACCTTTATTTCCTTTTAG [XGTACX_site6934]	9.59
AAAGGGGAAAATATTATACATATAATAAATCCGTAT [XGTACX_negctrl_site355]	9.56
TTTATATTTATATTGGGTACATAAAAAGCTTGAAAT [XGTACX_site8248]	9.34
ATTTTTATTCTTATTACACACCTAAATATAAAATAT [CACACA_site2064]	9.64
TGTGTTCATATATGCACACGCATATATATTATTGTT [CACACA_site3822]	10.1
TGTGTCCATTGAACAGTGCAATAAAAACTTTTACAT	9.73
ATAAATATGGAGCACACACACATAAACATACATATA [CACACA_site421]	11.1
TTCATTATTATTAACATACACACGTGTTATATACAC [CACACA_site4112]	9.9
TTTTTACTATAATTAAAATTAACAAAAGAAAATGAT [GTGCAC_negctrl_site52]	9.22
AAAAAATACAAGAAATGTACTCAAGCATATATTAAT [XGTACX_site3325]	9.75
TTCATTTTTTAAGCATCACACACGAAAGAACAAAGT [CACACA_site1122]	9.91
TTTACATCCAAAAACTGTACACTTATTTTATAATTC [XGTACX_site5332]	9.7
ATATATATAATATGTAGTACTTTCCTCTCAAATCAT [XGTACX_site7766]	9.74
ATCAAAAATATAAAAAATATAAACAATTTATTATCA [CACACA_negctrl_site768]	9.53
GAATCATATTTAAACACACATACATATATATATATA [CACACA_site3352]	9.79
AATAAGTAACAAAATACACACATATATATAATTATA [CACACA_site1837]	10.1
TCATAAATTAATAATACATGCATAATATTAAAATGT [TGCATGCA_site5]	9.6
AAAAATATATAAGAGAGTACATAAAATAAATTAATT [XGTACX_site1534]	9.72
TTTAATAATATAATGTGTACTTAAAAATTTATATAT [XGTACX_site5821]	9.44
TCATTTCAATACACAAGTACGTATATGGTTATATTG [XGTACX_site6021]	9.67
AATATAAAATAATGCACACATAAACAAAAAATCAAA [CACACA_site1371]	9.99

Sequence	gcPBM binding intensity (ln)
TCATTTTATTATTCTACACACTTATCTATAATTACA [CACACA_site6168]	9.89
TTACATGTACAAAAGTTGCACTTCATACACTTTTAT	9.81
ATTCTATATATGTGCACACAAAAGATATATATATAT [CACACA_site2124]	10
CGAAGGTTTGGCCATGCATGTTATAAGAATATATGT [TGCATGCA_site441]	9.51
AGTATATCAAAATACATACACACATTTGTATATACA [CACACA_site2697]	9.87
TACGTTATGTTGAATAGTACAATTTGGTGAACAGGT [XGTACX_site1729]	9.72
GTCCTCATCCACTATGCACACAAAAAAGAAATACAC [CACACA_site9131]	9.87
TTTTTTTTTTTTTTTTGTACACAAATTTATTGTCTA [XGTACX_site2680]	9.52
TTTCCAAATTGTTGACGGACACTCACGAATAGTTAT [XGTACX_site5720]	9.63
CATATGTATATGACTACACACAAGGGTGTACATATA [CACACA_site1164]	9.94
ACATGAAGATATTTTTGTCCGTACAAATTCATATGA [XGTACX_site1837]	9.51
ATATTTTTTTATAAATGTACAAAAATAATATTGCAT [XGTACX_site7399]	9.48
AAAATAATGTTTATATGTACATATATATATATATAT [XGTACX_site8815]	9.92
CCATTTACCCTTGCCATGCACACTTTTTTATAGAAA [CACACA_site3505]	9.91
TTATAAAAATAATATCGTACAAATGATAAAGATTAA [XGTACX_site4893]	9.53
TGAATTCGTCAAAAGCGTACATATAATATCTTCTTG [XGTACX_site8842]	9.63
ACATATATATATATATATAATATTTTATATTTATTA [CACACA_negctrl_site713]	9.44
TATATAGTAATATATACACACACTTGTCTTGTAAAA [CACACA_site990]	10.2
TTTTTATTTAATATTTTAAAAAAAAATCATTTTTAA [XGTACX_negctrl_site207]	9.16
AAGATTAATATTTTATGTACATATGTAATATATATG [XGTACX_site4367]	9.65
ATATTTTTATGATGTATCCAAGAAATGGAACTATAT [CACACA_negctrl_site1268]	9.4
AAGAATACACCACGCACACACACTTGAGAAAAAATA [CACACA_site3828]	11.2
ATATATACCTAAGACACACACATATAGATTTATATA [CACACA_site6498]	10.4

Sequence	gcPBM binding intensity (ln)
TTCTTTGTGGTATAGATACACACTATATTAATATGA [CACACA_site2150]	9.97
ATTTTAGATATCCTGCGTACACAAATTGCTTTATTT [XGTACX_site7149]	10.2
AAAATTTCAATAAATACACACATATATATATATATT [CACACA_site1685]	9.76
AAATAATATATGAATGCACACAGTAAAAATTAAAGA [CACACA_site2252]	10
ATAAATTTATATACTTGTACATATATATATTACATA [XGTACX_site6697]	9.67
TATATATACATATACACACACACACCCATATATATA [CACACA_site2246]	11.1
TTTGAAATAAAAAGGTGTACACTCGATTAATAAATA [XGTACX_site6943]	9.65
ACTATCATTTTTTTAACACACAAAAAAAATAAAATA [CACACA_site3519]	9.58
TTTTAGCACTTATTATAAGATATCAAAAAGATGGGT [XGTACX_negctrl_site325]	9.44
TATCTTATTTTAAAAGTGCATGGAAAGGGGTTTTTG	9.46
TGTATAAGTGCCGTTATACACACGTTATATAAATAT [CACACA_site438]	9.61
TTTTTTATATTAAATGAAGAATATACAAAATTTTAA [CACACA_negctrl_site558]	9.27
TTTTGTTAGTTTTTTTTCTTATATTACATTTTCACG [CACACA_negctrl_site1466]	9.65
ATGTAGTCTCAAGACTGTACAAACAAGTAAATAAAA [XGTACX_site4120]	9.68
ACATGTGAAGGGAACATAAATTGGGGTTTTATATTG [XGTACX_negctrl_site508]	9.58
AAATTATAAATAATTTGTACATAAAAATTGGTAAAG [XGTACX_site5197]	9.78
GAATATAAAAAAGAATGTACTTGAACAGTCCTAAAA [XGTACX_site745]	9.63
TCCATCCACATATATGTACACACATATATATATATA [CACACA_site8970]	9.88
GTTAAGGGTATATATACACACATATGTAATACATGA [CACACA_site5650]	9.93
ACAATTTTATTTAAAGTGCATGTAAAATTAAAACTT	9.53

— the supplement of paper PMC11417369
